Measured values: EP4644549A1, “ANTIMICROBIAL PEPTIDE AND METHOD FOR PRODUCING SAME” (Sumitomo Chemical Company, Limited, priority 2022, dated 2025)
At least one peptide structure holds a part that was inferred or is arguable (an end, a ring closure or a residue). Ends that are not written are not given here.

What was measured:
[1] = tested on: Lactobacillus sakei (NBRC15893); test: Antimicrobial activity test of chemically-synthesized peptides by spot-on-lawn method (lowest concentration forming a growth inhibition circle); type: cell-based; conditions: for Antimicrobial activity* (Lowest concentration) Alone: peptide alone, solution in water, 10 µL spotted on L. Sakei lawn, overnight at 30°C; for Antimicrobial activity* (Lowest concentration) Combination: two peptides combined in equimolar amounts (SEQ ID NO: 3 with 4; SEQ ID NO: 13 with 14), lowest concentration for each of the two, L. Sakei
[2] = tested on: Lactobacillus sakei (NBRC15893); test: Wide pH-range stability test (spot-on-lawn antimicrobial activity after incubation in buffer); type: physicochemical; set-up: key: A: Good activity; B: Slight influence on activity; C: No activity; conditions: ten times the lowest concentration of Table 3, A = spot diameter 80% or more of control in water; for pH Stability pH7: 1x phosphate buffer saline (pH7.4), 27°C for 24 hours; for pH Stability pH10: ammonium chloride-ammonia buffer 50 mM pH10.0, 27°C for 24 hours; for pH Stability pH4: sodium phosphate buffer 50 mM pH4, 27°C for 24 hours
Description: Antimicrobial activity of the antimicrobial peptide was evaluated by a spot-on-lawn method that involved spotting 10 µL of a test liquid 13 on the test bacteria (lawn) (on a soft agar medium 11) (Fig. 1). As the test bacteria, Lactobacillus sakei (NBRC15893) was used. The specific procedure is as follows. Firstly, the test bacteria that were cultured overnight were mixed and diluted with Lactobacilli AOAC agar (soft agar medium 11) in a density of 4×10^7 CFU/mL, and was spread over an MRS plate containing 2% agar (an agar medium 12). Test liquid 13 was spotted thereon, and incubated overnight at 30°C, followed by evaluation of the size of a growth inhibition circle 14 (Fig. 1). It can be determined that the larger the growth inhibition circle, the higher the antimicrobial activity. The fraction with highest antimicrobial activity as determined in the antimicrobial activity test was regarded as a purified active fraction and used in Experiment 4 and Experiment 5 described below. For the polypeptides as set forth in SEQ ID NOs: 1 to 5, 13, and 14 in Table 3, evaluation was carried out to see if they had antimicrobial activity over a wide range of pH. As a Comparative Example, a commercially available nisin A (manufactured by Sigma-Aldrich) was used. Firstly, each peptide was dissolved in the following buffer to prepare a solution of a concentration ten times the lowest concentration specified in Table 3: sodium phosphate buffer (50 mM, pH4), 1x phosphate buffer saline (pH7.4), ammonium chloride-ammonia buffer (50 mM, pH10.0). The test solutions thus prepared at respective pHs were incubated at 27°C for 24 hours. Then, with the use of Lactobacillus sakei (NBRC15893) strain as test bacteria and in the same manner as in Experiment 3, an antimicrobial activity test was carried out to measure the antimicrobial activity of the test solutions incubated at respective pHs. As a control, a test solution prepared by diluting the peptide of interest in water was used. Antimicrobial activity was evaluated based on the size of the spot (the size of the growth inhibition circle). When the size of the spot was equivalent to that of the control (when the diameter of the spot was 80% or more of the control), it was rated as A, and when the size was relatively small but antimicrobial activity was still detected, it was rated as B. When the growth inhibition circle was not observed, it was rated as C. It can be determined that the peptides rated as A or B are stable at the test pHs. Results are given in Table 4 (in the "pH Stability" section). In the "SEQ ID NO or substance name of peptide" section in Table 4, each of "SEQ ID NO: 3 & SEQ ID NO: 4" and "SEQ ID NO: 13 & SEQ ID NO: 14" means that a combination of the two types of peptides was used in equimolar amounts. The results in Table 4 indicate that the polypeptides as set forth in SEQ ID NOs: 1 to 5, 13, and 14 are stable and have antimicrobial activity over a wide range of pH.

[3] = tested on: Lactobacillus sakei (NBRC15893); test: Thermal stability test (spot-on-lawn antimicrobial activity after heat treatment); type: physicochemical; set-up: key: A: Good activity; B: Slight influence on activity; C: No activity; conditions: in water, ten times the lowest concentration of Table 3, A = spot diameter 80% or more of control with no heat treatment; for Thermostability 80°C: 80°C for 30 minutes; for Thermostability 100°C: 100°C for 30 minutes; for Thermostability 121°C: 121°C for 15 minutes (autoclave)
Description: Antimicrobial activity of the antimicrobial peptide was evaluated by a spot-on-lawn method that involved spotting 10 µL of a test liquid 13 on the test bacteria (lawn) (on a soft agar medium 11) (Fig. 1). As the test bacteria, Lactobacillus sakei (NBRC15893) was used. The specific procedure is as follows. Firstly, the test bacteria that were cultured overnight were mixed and diluted with Lactobacilli AOAC agar (soft agar medium 11) in a density of 4×10^7 CFU/mL, and was spread over an MRS plate containing 2% agar (an agar medium 12). Test liquid 13 was spotted thereon, and incubated overnight at 30°C, followed by evaluation of the size of a growth inhibition circle 14 (Fig. 1). It can be determined that the larger the growth inhibition circle, the higher the antimicrobial activity. The fraction with highest antimicrobial activity as determined in the antimicrobial activity test was regarded as a purified active fraction and used in Experiment 4 and Experiment 5 described below. For the polypeptides as set forth in SEQ ID NOs: 1 to 5, 13, and 14 in Table 3, evaluation was carried out to see if they had antimicrobial activity after heat treatment. As a Comparative Example, a commercially available nisin A (manufactured by Sigma-Aldrich) was used. Firstly, each peptide was dissolved in water to prepare a solution of a concentration ten times the lowest concentration specified in Table 3. The test solution thus prepared was subjected to heat treatment at 80°C for 30 minutes, or at 100°C for 30 minutes, or at 121°C for 15 minutes. The heat treatment at 121°C was carried out with the use of an autoclave "LSX-700" manufactured by TOMY Seiko. Then, with the use of Lactobacillus sakei (NBRC15893) strain as test bacteria and in the same manner as in Experiment 3, an antimicrobial activity test was carried out to measure the antimicrobial activity of the test solutions after heat treatment. As a control, a sample solution with no heat treatment was used. Antimicrobial activity was evaluated based on the size of the spot (the size of the growth inhibition circle); when the size of the spot was equivalent to that of the control (when the diameter of the spot was 80% or more of the control), it was rated as A, and when the size was relatively small but activity was still detected, it was rated as B. When the spot was not observed, it was rated as C. It can be determined that the peptides rated as A or B are stable at the test temperatures. Results are given in Table 4 (in the "Thermostability" section). In the "SEQ ID NO or substance name of peptide" section in Table 4, each of "SEQ ID NO: 3 & SEQ ID NO: 4" and "SEQ ID NO: 13 & SEQ ID NO: 14" means that a combination of the two types of peptides was used in equimolar amounts. The results in Table 4 indicate that the polypeptides as set forth in SEQ ID NOs: 1 to 5, 13, and 14 have antimicrobial activity at temperatures within the range of 80°C to 121°C.

Candida albicans = test: Antimicrobial activity test in liquid culture (growth by OD630); type: cell-based; set-up: key: +: Antimicrobial activity observed; -: No antimicrobial activity observed; conditions: culturing 24 to 48 hours
Description: (§1) As a Comparative Example, a commercially available nisin A (manufactured by Sigma-Aldrich) was used. Firstly, each peptide was dissolved in MRS medium to prepare a solution of a concentration of 20 µM to 1000 µM. From the resultant, 10 µl was taken and mixed with various test bacteria and 90 µl of medium intended for culturing the test bacteria, followed by culturing for 24 hours to 48 hours. After culturing, OD630 was measured to check the number of bacteria. When OD630 increased or turbidity was visually observed as compared to the culture liquid before culturing, it can be determined that the test bacteria had grown. […] In the "SEQ ID NO or substance name of peptide" section in Table 5, each of "SEQ ID NO: 3 & SEQ ID NO: 4" and "SEQ ID NO: 13 & SEQ ID NO: 14" means that a combination of the two types of peptides were used in equimolar amounts. The results in Table 5 indicate that the polypeptides as set forth in SEQ ID NOs: 1 to 5, 13, and 14 were effective against gram-positive bacteria and some of these polypeptides were effective against gram-negative bacteria such as E. coli and fungi such as C. albicans.

Escherichia coli = test: as above; type: cell-based; set-up: key: +: Antimicrobial activity observed; -: No antimicrobial activity observed; conditions: culturing 24 to 48 hours
Description: as §1

Lactobacillus sakei = test: as above; type: cell-based; set-up: key: +: Antimicrobial activity observed; -: No antimicrobial activity observed; conditions: culturing 24 to 48 hours
Description: as §1

Staphylococcus aureus = test: as above; type: cell-based; set-up: key: +: Antimicrobial activity observed; -: No antimicrobial activity observed; conditions: culturing 24 to 48 hours
Description: as §1

Streptococcus uberis = test: as above; type: cell-based; set-up: key: +: Antimicrobial activity observed; -: No antimicrobial activity observed; conditions: culturing 24 to 48 hours
Description: as §1

Sequence: IWQWIVGGLGFLAGDAWSHSDQISSGIKKRKKKGYGY [SEQ ID NO: 14]
- Antimicrobial activity* (Lowest concentration) Alone [1]: >1000 µM
- Antimicrobial activity* (Lowest concentration) Combination [1]: 1.5 µM

Sequence: KTKTISLMSGLQVPHAFTKLLKALGGHH [SEQ ID NO: 2]
- Antimicrobial activity* (Lowest concentration) Alone [1]: 30 µM
- pH Stability pH7 [2]: A
- pH Stability pH10 [2]: A
- pH Stability pH4 [2]: A
- Thermostability 80°C [3]: A
- Thermostability 100°C [3]: A
- Thermostability 121°C [3]: A
- Antimicrobial activity, test bacteria Candida albicans (Candida albicans; Test conc. 30 µM): -
- Antimicrobial activity, test bacteria Escherichia coli (Escherichia coli; Test conc. 30 µM): -
- Antimicrobial activity, test bacteria Lactobacillus sakei (Lactobacillus sakei; Test conc. 30 µM): +
- Antimicrobial activity, test bacteria Staphylococcus aureus (Staphylococcus aureus; Test conc. 30 µM): -
- Antimicrobial activity, test bacteria Streptococcus uberis (Streptococcus uberis; Test conc. 30 µM): +

Sequence: MSKKQWYRLGERVGRVAVFIGGGLLFK [SEQ ID NO: 1]
- Antimicrobial activity* (Lowest concentration) Alone [1]: 10 µM
- pH Stability pH7 [2]: A
- pH Stability pH10 [2]: A
- pH Stability pH4 [2]: A
- Thermostability 80°C [3]: A
- Thermostability 100°C [3]: A
- Thermostability 121°C [3]: A
- Antimicrobial activity, test bacteria Candida albicans (Candida albicans; Test conc. 30 µM): +
- Antimicrobial activity, test bacteria Escherichia coli (Escherichia coli; Test conc. 30 µM): +
- Antimicrobial activity, test bacteria Lactobacillus sakei (Lactobacillus sakei; Test conc. 30 µM): +
- Antimicrobial activity, test bacteria Staphylococcus aureus (Staphylococcus aureus; Test conc. 30 µM): +
- Antimicrobial activity, test bacteria Streptococcus uberis (Streptococcus uberis; Test conc. 30 µM): +

Sequence: SHAYNAAAIRRNNKSMKGAASFAKKFFPAFF [SEQ ID NO: 5 (X=A)]
- Antimicrobial activity* (Lowest concentration) Alone [1]: 100 µM
- pH Stability pH7 [2]: A
- pH Stability pH10 [2]: B
- pH Stability pH4 [2]: A
- Thermostability 80°C [3]: A
- Thermostability 100°C [3]: A
- Thermostability 121°C [3]: A

Sequence: SHAYNAAAIRRNNKSMKGAASFVKKFFPAFF [SEQ ID NO: 5 (X=V)]
- Antimicrobial activity* (Lowest concentration) Alone [1]: 30 µM
- pH Stability pH7 [2]: A
- pH Stability pH10 [2]: A
- pH Stability pH4 [2]: A
- Thermostability 80°C [3]: A
- Thermostability 100°C [3]: A
- Thermostability 121°C [3]: A
- Antimicrobial activity, test bacteria Candida albicans (Candida albicans; Test conc. 20 µM): -
- Antimicrobial activity, test bacteria Escherichia coli (Escherichia coli; Test conc. 20 µM): -
- Antimicrobial activity, test bacteria Lactobacillus sakei (Lactobacillus sakei; Test conc. 20 µM): +
- Antimicrobial activity, test bacteria Staphylococcus aureus (Staphylococcus aureus; Test conc. 20 µM): -
- Antimicrobial activity, test bacteria Streptococcus uberis (Streptococcus uberis; Test conc. 20 µM): +

Sequence: SNNKFWTWAGYTYENWRISSRRAFNLRQRKNTMTHH [SEQ ID NO: 13]
- Antimicrobial activity* (Lowest concentration) Alone [1]: >1000 µM
- Antimicrobial activity* (Lowest concentration) Combination [1]: 1.5 µM

Sequence: SSSLLNTAWRKFGQIAGTVTSAGLDAGWIRAHKYGHGRSH [SEQ ID NO: 4]
- Antimicrobial activity* (Lowest concentration) Alone [1]: 3 µM
- Antimicrobial activity* (Lowest concentration) Combination [1]: 0.15 µM
- pH Stability pH7 [2]: A
- pH Stability pH10 [2]: B
- pH Stability pH4 [2]: A
- Thermostability 80°C [3]: A
- Thermostability 100°C [3]: A
- Thermostability 121°C [3]: A
- Antimicrobial activity, test bacteria Candida albicans (Candida albicans; Test conc. 20 µM): -
- Antimicrobial activity, test bacteria Escherichia coli (Escherichia coli; Test conc. 20 µM): -
- Antimicrobial activity, test bacteria Lactobacillus sakei (Lactobacillus sakei; Test conc. 20 µM): +
- Antimicrobial activity, test bacteria Staphylococcus aureus (Staphylococcus aureus; Test conc. 20 µM): +
- Antimicrobial activity, test bacteria Streptococcus uberis (Streptococcus uberis; Test conc. 20 µM): +

Sequence: WLQYLIPVVVSGLNHTDQIMRGWKKGYHRHH [SEQ ID NO: 3]
- Antimicrobial activity* (Lowest concentration) Alone [1]: 10 µM
- Antimicrobial activity* (Lowest concentration) Combination [1]: 0.15 µM
- pH Stability pH7 [2]: A
- pH Stability pH10 [2]: A
- pH Stability pH4 [2]: A
- Thermostability 80°C [3]: A
- Thermostability 100°C [3]: A
- Thermostability 121°C [3]: A
- Antimicrobial activity, test bacteria Candida albicans (Candida albicans; Test conc. 20 µM): -
- Antimicrobial activity, test bacteria Escherichia coli (Escherichia coli; Test conc. 20 µM): -
- Antimicrobial activity, test bacteria Lactobacillus sakei (Lactobacillus sakei; Test conc. 20 µM): +
- Antimicrobial activity, test bacteria Staphylococcus aureus (Staphylococcus aureus; Test conc. 20 µM): -
- Antimicrobial activity, test bacteria Streptococcus uberis (Streptococcus uberis; Test conc. 20 µM): +
